Assay in all cases: uncleaved DNA left, log2 of reads against the no-enzyme library (log2 ratio); higher = less cleavage (more negative = more Rep cleavage of the k-mer); sequences stand for … in CTCGTCCG…ACCGGAGA
The test system of test [1] is T1, Rep nickase domain of Muscovy duck circovirus.
T1 sequence (residues 1-111 of Rep, tag left off): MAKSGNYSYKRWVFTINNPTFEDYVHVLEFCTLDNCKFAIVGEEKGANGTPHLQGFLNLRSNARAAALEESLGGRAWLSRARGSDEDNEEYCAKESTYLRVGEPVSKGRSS
The procedure: (§1)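 A pool of 90-nt single-stranded DNAs with seven random bases just before the constant AC of the nick site (name = the seven bases) was cut by 3 µM recombinant His6-SUMO-tagged Rep nickase domain (300 nM DNA, 50 mM HEPES pH 8.0, 50 mM NaCl, 1 mM MnCl2, 1 h, 37 °C, three replicates). Uncut DNA was amplified and sequenced.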

Test [2] has as its system T2, Rep nickase domain of banana bunchy top virus.
T2 sequence (residues 1-94 of Rep, tag left off): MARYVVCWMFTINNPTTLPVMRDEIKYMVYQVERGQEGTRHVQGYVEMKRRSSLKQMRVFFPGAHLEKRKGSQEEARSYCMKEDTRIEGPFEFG
Here is the method:
as §1

In test [3] the test system is T3, Rep nickase domain of cabbage leaf curl virus.
T3 sequence (residues 1-116 of Rep, tag left off): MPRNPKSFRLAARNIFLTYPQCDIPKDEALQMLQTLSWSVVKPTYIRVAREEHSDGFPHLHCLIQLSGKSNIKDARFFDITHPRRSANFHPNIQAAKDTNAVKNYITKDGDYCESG
Here is the method: as §1
In test [4] the test system is T4, Rep nickase domain of chickpea chlorotic dwarf virus.
T4 sequence (residues 1-124 of Rep, tag left off): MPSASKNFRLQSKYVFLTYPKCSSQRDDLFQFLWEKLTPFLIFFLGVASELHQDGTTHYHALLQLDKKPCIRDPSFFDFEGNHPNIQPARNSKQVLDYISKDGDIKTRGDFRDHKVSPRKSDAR
Here is the method:
as §1

Test [5] deals with T5, Rep nickase domain of faba bean necrotic yellows virus.
T5 sequence (residues 1-98 of Rep, tag left off): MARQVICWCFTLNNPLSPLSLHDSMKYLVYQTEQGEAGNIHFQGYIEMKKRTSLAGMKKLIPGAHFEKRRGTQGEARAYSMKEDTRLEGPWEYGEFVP
Here is the method: as §1
For test [6], the system named is T6, Rep nickase domain of maize striate mosaic virus.
T6 sequence (residues 1-117 of Rep, tag left off): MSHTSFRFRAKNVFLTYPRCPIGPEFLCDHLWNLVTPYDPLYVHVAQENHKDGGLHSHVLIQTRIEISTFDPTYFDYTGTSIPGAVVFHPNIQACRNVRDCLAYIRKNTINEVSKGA
Here is the method:
as §1

For test [7], the system named is T7, Rep nickase domain of porcine circovirus 2.
T7 sequence (residues 2-116 of Rep, tag left off): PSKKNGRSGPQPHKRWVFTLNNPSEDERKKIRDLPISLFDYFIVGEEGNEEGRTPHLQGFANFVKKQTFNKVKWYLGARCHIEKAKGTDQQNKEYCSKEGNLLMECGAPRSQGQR
The procedure: as §1
For test [8], the system named is T8, Rep nickase domain of tomato golden mosaic virus.
T8 sequence (residues 1-124 of Rep, tag left off): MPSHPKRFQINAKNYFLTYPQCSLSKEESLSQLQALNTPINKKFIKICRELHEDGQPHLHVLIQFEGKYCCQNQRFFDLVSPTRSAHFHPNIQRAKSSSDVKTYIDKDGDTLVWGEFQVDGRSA
Here is the method:
as §1

The subject of test [9] is T9, Rep nickase domain of tomato yellow leaf curl virus.
T9 sequence (residues 1-136 of Rep, tag left off): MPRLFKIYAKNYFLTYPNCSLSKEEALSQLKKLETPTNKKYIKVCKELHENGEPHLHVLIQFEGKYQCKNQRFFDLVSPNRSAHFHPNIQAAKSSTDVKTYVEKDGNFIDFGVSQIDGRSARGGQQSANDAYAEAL
The procedure:
as §1

The subject of test [10] is T10, Rep nickase domain of wheat dwarf virus.
T10 sequence (residues 1-137 of Rep, tag left off): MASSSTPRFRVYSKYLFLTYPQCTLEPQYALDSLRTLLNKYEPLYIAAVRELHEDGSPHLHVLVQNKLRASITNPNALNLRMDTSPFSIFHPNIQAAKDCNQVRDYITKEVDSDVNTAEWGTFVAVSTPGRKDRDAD
The procedure:
as §1

The list shows a part of the results. Cleavage of a single-stranded DNA pool by Rep nickase domains was read by sequencing (1 h at 37 °C, 3 µM enzyme); the outer parts of the 90-letter strands are left off. The score is log2 (uncut reads / reads without enzyme); more negative means more cut, near 0 not cut, and no call is made. Reads are scaled to the total, so uncut sequences can rise above 0 when many others are cut.

Regarding CTGGCCG, the “uncleaved DNA left (log2)” value in test [1] is -0.0132; in [2], 0.00105; in test [3], 0.111; in [4] it was 0.491; in test [5], -0.0864; in test [6], 0.193. In addition, the “uncleaved DNA left (log2)” value was 0.0396 in test [7], 0.0341 in test [8], -0.0382 in [9] and -0.0204 in [10].
AGATTTC: the “uncleaved DNA left (log2)” value in test [1] was 0.177; in [2], 0.127; in test [3], 0.163; in test [4], 0.156; in [5], 0.11; in [6] it was -0.326. In addition, the “uncleaved DNA left (log2)” value in test [7] was found to be 0.12; in test [8], 0.0079; in [9] it was 0.0807; in test [10], 0.102.
GGTCCTG: the “uncleaved DNA left (log2)” value in test [1] is -0.143; in test [2], -0.0885; in [3] it was 0.0457; in [4], 0.693; in [5] it was -0.0685; in test [6], 1.21. Besides, the “uncleaved DNA left (log2)” value in test [7] was 0.0154; in test [8] it was -0.0599; in test [9] it was 0.0273; in test [10] it was -0.0263.
Regarding ACGTTTA, the “uncleaved DNA left (log2)” value was -0.0636 in [1]; 0.0186 in [2]; -0.325 in [3]; -1.36 in [4]; 0.121 in test [5]; -0.641 in [6]. The “uncleaved DNA left (log2)” value was -0.0936 in [7], -0.0216 in test [8], -0.00282 in test [9] and 0.000883 in test [10].
As to CGCGTAA, the “uncleaved DNA left (log2)” value in [1] is 0.0217; in test [2], 0.0857; in [3], -0.233; in test [4], -0.394; in test [5], -0.0556; in test [6], -0.759. The “uncleaved DNA left (log2)” value was 0.0778 in [7], 0.0728 in test [8], 0.0972 in test [9] and -0.00124 in test [10].
Regarding ATCTTAA, the “uncleaved DNA left (log2)” value is 0.0623 in test [1]; 0.0948 in test [2]; -0.0538 in [3]; -0.252 in test [4]; 0.146 in [5]; -0.576 in test [6]. Also, the “uncleaved DNA left (log2)” value in test [7] is -0.0928; in [8], 0.0596; in [9], 0.0677; in test [10], -0.00554.
Regarding TACAAAA, the “uncleaved DNA left (log2)” value in [1] was -0.0342; in [2] it was 0.148; in [3], -0.0136; in [4], -0.945; in [5] it was 0.0469; in test [6], -0.574. Moreover, the “uncleaved DNA left (log2)” value in test [7] is -0.0457; in test [8], -0.118; in [9], -0.0329; in test [10] it was -0.0375.
With TGCAAGA, the “uncleaved DNA left (log2)” value was 0.172 in test [1]; 0.0858 in test [2]; 0.009 in test [3]; -0.0642 in test [4]; 0.0611 in test [5]; -0.861 in test [6]. Further, the “uncleaved DNA left (log2)” value is 0.218 in [7], 0.0731 in test [8], 0.148 in test [9] and -0.00469 in test [10].
With CATGATG, the “uncleaved DNA left (log2)” value is -0.0192 in test [1]; -0.0397 in test [2]; -0.364 in test [3]; -0.282 in test [4]; -0.133 in [5]; -0.718 in test [6]. Also, the “uncleaved DNA left (log2)” value in [7] was 0.0244; in test [8], 0.00148; in [9], -0.0956; in test [10], -0.0563.
Turning to ACGACCT, the “uncleaved DNA left (log2)” value in [1] is 0.0143; in test [2], 0.139; in test [3], -0.0201; in test [4], 0.435; in test [5], 0.1; in [6], 0.831. Also, the “uncleaved DNA left (log2)” value turned out to be 0.0469 in [7], 0.115 in [8], 0.0475 in [9] and 0.191 in [10].
With GAAACTG, the “uncleaved DNA left (log2)” value is -0.0133 in test [1]; -0.0211 in test [2]; 0.0145 in test [3]; 0.623 in [4]; 0.00393 in [5]; 1.36 in test [6]. Further, the “uncleaved DNA left (log2)” value in [7] is 0.0245; in [8], 0.0166; in test [9] it was -0.0705; in test [10], 0.0448.
Turning to CGTATTC, the “uncleaved DNA left (log2)” value in test [1] was -0.037; in [2] it was -0.164; in test [3] it was 0.00229; in test [4], -0.0993; in [5] it was -0.0895; in [6] it was -0.633. Moreover, the “uncleaved DNA left (log2)” value in test [7] is 0.0425; in test [8], -0.143; in test [9], -0.0813; in [10] it was 0.0283.
Consider TTTAATT, for which the “uncleaved DNA left (log2)” value in [1] was -0.379; in [2], -0.0899; in test [3] it was 0.0323; in [4], -2.62; in test [5], -0.0597; in test [6], -0.448. The “uncleaved DNA left (log2)” value in test [7] is -2.9; in test [8], -0.0619; in test [9] it was -0.0825; in [10], -0.168.
Turning to CAGAGCT, the “uncleaved DNA left (log2)” value is -0.0773 in test [1]; -0.167 in [2]; -0.356 in [3]; -1.53 in test [4]; -0.0102 in [5]; -0.858 in test [6]. In addition, the “uncleaved DNA left (log2)” value is -2.64 in test [7], -0.0662 in test [8], 0.0497 in test [9] and -0.00353 in test [10].
In the case of GCTACCG, the “uncleaved DNA left (log2)” value in test [1] was -0.0491; in test [2], -0.0879; in [3], -0.699; in [4] it was -0.995; in [5], -0.0297; in [6] it was -0.955. For the same sequence, the “uncleaved DNA left (log2)” value in [7] is 0.0172; in test [8] it was 0.033; in test [9], -0.101; in [10], -0.186.

Values taken from the supplement of paper PMC7826260.
